Measured values reported in the supplement of paper PMC10126150.
Values marked as one replicate rest on one cluster of the flow cell; about a third of the high ones do not repeat.

Test system: ATP
Test: switch fluorescence ratio, 500 uM ATP over buffer (Cy3 cluster intensity, sum of 5 cycles each) (fold (ratio)); higher = stronger signal-on switching upon ATP binding; sequences stand for … in TCGTCGGCAGCGTCAGATGTGTATAAGAGACAGTTTTTTTTTTTTTTTTTTTTTTTTT…TC
Conditions: aptamer strand: ATP DNA aptamer (quencher-CACCTGGGGGAGTATTGCGGAGGAAGG + anchor), 100 nM annealed; ATP concentration: 500 uM; one replicate
Summary of the method: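 For every switch-domain sequence, the fluorescence ratio is the mean of per-cluster values, each being summed target-cycle Cy3 intensity over summed buffer-cycle Cy3 intensity. Clusters outside 100-1000 RFU were excluded. On a modified Illumina MiSeq flow-cell, the Cy3-labelled switching-strand clusters were annealed to 100 nM quencher-labelled ATP aptamer, imaged in selection buffer and then after 15 min with 500 uM ATP at 22 °C. Five such cycles were run, with NaOH stripping and re-annealing between them.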
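Further: ATP exposure 15 min at 22 °C before imaging.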

## TGGGCATGCA
  switch fluorescence ratio: 0.931

## CTGTCCGGA
  switch fluorescence ratio: 1.04

## CTCCCTCTTT
  switch fluorescence ratio: 1.07

## GTAGAGCAGC
  switch fluorescence ratio: 1.12

## TTGTCAAAGT
  switch fluorescence ratio: 0.982

## CCAGGTGGTA
  switch fluorescence ratio: 2.97

## GGTACGAGTA
  switch fluorescence ratio: 0.97

## GCGTTTCCA
  switch fluorescence ratio: 0.948

## AGTATTGAGT
  switch fluorescence ratio: 1.01

## CACCAGAAGA
  switch fluorescence ratio: 1.07

## AAATGGGTCA
  switch fluorescence ratio: 1.02

## TGGATGGAGG
  switch fluorescence ratio: 0.984

## ATGTGCCTTC
  switch fluorescence ratio: 1.03

## AACGCACTCG
  switch fluorescence ratio: 1.47

## GCTGTACCTC
  switch fluorescence ratio: 1.1

## GGACGAAAAG
  switch fluorescence ratio: 1

## TTGGAACGGT
  switch fluorescence ratio: 1.02

## ACCGATATGA
  switch fluorescence ratio: 1.01

## GGCCCCTAGC
  switch fluorescence ratio: 0.96

## CACGGCACGG
  switch fluorescence ratio: 1.28

## CGTCCCAAGA
  switch fluorescence ratio: 2.71

## AACCATAATT
  switch fluorescence ratio: 1.04

## ATGAAATCGG
  switch fluorescence ratio: 0.972

## ATTGACACAC
  switch fluorescence ratio: 1.5

## TGGTACGTTA
  switch fluorescence ratio: 1.13

## ATATCTAGAT
  switch fluorescence ratio: 0.976

## TCAGCGTATC
  switch fluorescence ratio: 1.07

## CGGTATCATT
  switch fluorescence ratio: 0.993

## TAAATAGTTA
  switch fluorescence ratio: 0.971

## GTAGGTGAAT
  switch fluorescence ratio: 1

## CTTGCGTGGG
  switch fluorescence ratio: 0.975

## TGCTGCTAAC
  switch fluorescence ratio: 1.18

## GATTTTCGGA
  switch fluorescence ratio: 1.07

## AATCGTTCGC
  switch fluorescence ratio: 1.06

## TGGGATGA
  switch fluorescence ratio: 0.983

## AAGATGTGC
  switch fluorescence ratio: 0.933

## ATCTGCTGGA
  switch fluorescence ratio: 1.01

## TCGGAGTGAC
  switch fluorescence ratio: 1.24

## TTACTGTGG
  switch fluorescence ratio: 0.991

## ACATGTCA
  switch fluorescence ratio: 1.03

## GAGCAGATG
  switch fluorescence ratio: 1.19

## AGAGGTGTT
  switch fluorescence ratio: 1.03

## AATCGGTTAC
  switch fluorescence ratio: 1.04

## AGGATTACGG
  switch fluorescence ratio: 1.02

## GTTAATGTGT
  switch fluorescence ratio: 0.982

## GATGCTATGC
  switch fluorescence ratio: 1.37

## GTGTCAGGCC
  switch fluorescence ratio: 0.997

## TCATAATGAA
  switch fluorescence ratio: 1.02

## GGGAAACGGA
  switch fluorescence ratio: 0.987

## TAATTGTCTG
  switch fluorescence ratio: 1

## GGGAAAGGCT
  switch fluorescence ratio: 0.959

## ATCATAGTGT
  switch fluorescence ratio: 0.98

## TTATAAGAGA
  switch fluorescence ratio: 0.979

## GTTTACTTT
  switch fluorescence ratio: 1.03

## GATGAGGGCT
  switch fluorescence ratio: 1.05

## CCCCGAGGGA
  switch fluorescence ratio: 1.1

## AAAACTCCCG
  switch fluorescence ratio: 1.08

## TCCGTGTA
  switch fluorescence ratio: 0.957

## CTCACCGCTA
  switch fluorescence ratio: 3.45

## CTATATTCTT
  switch fluorescence ratio: 0.983

## GCCGTATCTA
  switch fluorescence ratio: 0.975

## CAATATTTCG
  switch fluorescence ratio: 1.02

## TCACGGCTGC
  switch fluorescence ratio: 1.06

## TGCGATATG
  switch fluorescence ratio: 1.66

## ATGACTGCTG
  switch fluorescence ratio: 1.04

## GCGACAGAGG
  switch fluorescence ratio: 1.01

## CTCCCGTCAG
  switch fluorescence ratio: 1.52

## CCAAAACACA
  switch fluorescence ratio: 1.06

## AAGATACAAG
  switch fluorescence ratio: 1.06

## TCTCCTTGA
  switch fluorescence ratio: 1

## GCCATAAATT
  switch fluorescence ratio: 1.06

## ACTAAGTATG
  switch fluorescence ratio: 0.987

## AACCCGAGAG
  switch fluorescence ratio: 1.05

## ATAGTCATAA
  switch fluorescence ratio: 0.953

## AGTGCTACAC
  switch fluorescence ratio: 1.02

## GGTTAATGCG
  switch fluorescence ratio: 0.995

## CAGGTCAATC
  switch fluorescence ratio: 1.2

## TTTATTGC
  switch fluorescence ratio: 1.02

## CGAGCGCAGA
  switch fluorescence ratio: 1.12

## TATAGCAGCA
  switch fluorescence ratio: 1.02

## TAGAAGGTGT
  switch fluorescence ratio: 1.08

## TAAGTGTAAT
  switch fluorescence ratio: 0.993

## GCAACCCCGC
  switch fluorescence ratio: 1.25

## AAATACCAT
  switch fluorescence ratio: 0.996

## TCGGCGTCTG
  switch fluorescence ratio: 0.991

## AACAGGGTGC
  switch fluorescence ratio: 1.08

## TGTCGTTCTG
  switch fluorescence ratio: 1.01

## TCTTTTGTAG
  switch fluorescence ratio: 0.998

## TTCATACATA
  switch fluorescence ratio: 1.12

## TTGTAAATTA
  switch fluorescence ratio: 1.01

## CGTTCATTA
  switch fluorescence ratio: 1

## CGGATGCCGC
  switch fluorescence ratio: 1.13

## GCGTTTCCCA
  switch fluorescence ratio: 0.952

## TTATTCTTAT
  switch fluorescence ratio: 1.03

## TAAGATGCCA
  switch fluorescence ratio: 0.979

## AAGAATTTCT
  switch fluorescence ratio: 0.955

## CGACACAGTC
  switch fluorescence ratio: 1.12

## AGTGTAGTCG
  switch fluorescence ratio: 0.938

## ATGTCGAGCT
  switch fluorescence ratio: 0.967

## TCTGTTCGGT
  switch fluorescence ratio: 0.954

## TCGTATTCT
  switch fluorescence ratio: 1.01

## AGGGGCATTA
  switch fluorescence ratio: 1.02

## CCGTTAACGT
  switch fluorescence ratio: 1.02

## CCGAACAGAG
  switch fluorescence ratio: 1.27

## ACTGTCCTAA
  switch fluorescence ratio: 1.03

## GCAAAAGCAT
  switch fluorescence ratio: 0.98

## CTCCTAATTG
  switch fluorescence ratio: 1.1

## CTGGCTATCA
  switch fluorescence ratio: 0.917

## GTCGGGGGAG
  switch fluorescence ratio: 0.998

## CGGGGTCCTT
  switch fluorescence ratio: 0.987

## TACAACTAAA
  switch fluorescence ratio: 1.03

## TTCTTCCTAT
  switch fluorescence ratio: 1.05

## AGTACCGGTC
  switch fluorescence ratio: 1.31

## TAAAGTAGG
  switch fluorescence ratio: 1.03

## CACTGGCTCT
  switch fluorescence ratio: 1.01

## AACGGAGTAC
  switch fluorescence ratio: 1.16

## GGCGTCAATC
  switch fluorescence ratio: 1.11

## GCTGGCTGTC
  switch fluorescence ratio: 0.995

## CGAGACGGTT
  switch fluorescence ratio: 1.06

## TCGCGATAAG
  switch fluorescence ratio: 1.23

## GATCTAGAAC
  switch fluorescence ratio: 1.01

## ACGTGACGTT
  switch fluorescence ratio: 1.08

## ACGCTAAATT
  switch fluorescence ratio: 1.18

## CTTGAACAG
  switch fluorescence ratio: 1.02

## GAGAACACGA
  switch fluorescence ratio: 1

## AGCGTAGATG
  switch fluorescence ratio: 0.984

## TTTGTTAGTC
  switch fluorescence ratio: 0.995

## TGATTCCTCC
  switch fluorescence ratio: 1.97

## GATTCGGGTG
  switch fluorescence ratio: 0.999

## TAAGGCTCGC
  switch fluorescence ratio: 1.03

## CGAAGCTGAT
  switch fluorescence ratio: 1.43

## TTCATCTTGA
  switch fluorescence ratio: 1.03

## CGGGCGTATG
  switch fluorescence ratio: 0.981

## TCCAGAGCCA
  switch fluorescence ratio: 1.84

## GCAAGAGGGC
  switch fluorescence ratio: 1.06

## TAGGTATGCT
  switch fluorescence ratio: 0.962

## GGTGCTAGAG
  switch fluorescence ratio: 1.02

## TTGCTTCAGT
  switch fluorescence ratio: 0.989

## GCATCTCTAC
  switch fluorescence ratio: 1.09

## GGGTAGTCTC
  switch fluorescence ratio: 0.98

## CTTGCGTGAA
  switch fluorescence ratio: 1.02

## TTTCAAGCGT
  switch fluorescence ratio: 1.04

## GATTTATCAG
  switch fluorescence ratio: 1.04

## CATGACCTG
  switch fluorescence ratio: 0.942

## GCCGGCGCTG
  switch fluorescence ratio: 1

## TATGGCGTTG
  switch fluorescence ratio: 0.972

## GATAACGGGA
  switch fluorescence ratio: 0.929

## AAGCTATTTT
  switch fluorescence ratio: 1

## TGGCAGGGAG
  switch fluorescence ratio: 1

## TCCGCTGATT
  switch fluorescence ratio: 1.86

## CGGGGCTATC
  switch fluorescence ratio: 1.21

## CATCGATCCC
  switch fluorescence ratio: 1.01

## AGTACATAGG
  switch fluorescence ratio: 1.11

## ATGACCGGTG
  switch fluorescence ratio: 1.04

## TCTCAGGCGT
  switch fluorescence ratio: 1.08

## AATGAAATC
  switch fluorescence ratio: 1.03

## CGGTCTGTGT
  switch fluorescence ratio: 0.992

## TATATTCGGT
  switch fluorescence ratio: 0.999
